Measured values as given in PubChem BioAssay AID1159614 (National Center for Advancing Translational Sciences (NCATS), 2016).
Among all 45,000 compounds or so, about 65 (0.1%) were called active. The call rests on the fitted dose curve; in most records, active means well fitted activation curve with a large enough effect; inconclusive means small, poorly fitted or top-dose-only effect; inactive means no such curve, though single readings can be large or run the other way. This is one part of the list.
Further: 0% is about no effect; nearly all actives have a fitted effect of over 65% in size.

Each compound was assayed against Galactocerebrosidase (Homo sapiens) (UniProt P54803) (assay: A Novel Cell-Based Assay to Identify Small Molecules for B -Galactocerebrosidase). Conditions: 145M-Twi-hGALC-G270D cells, HMU-beta-Gal fluorescence, 48 h; series mostly up to 57.5 µM; activation: at the top concentration.
UniProt P54803, sequence (P54803 whole entry, looked up): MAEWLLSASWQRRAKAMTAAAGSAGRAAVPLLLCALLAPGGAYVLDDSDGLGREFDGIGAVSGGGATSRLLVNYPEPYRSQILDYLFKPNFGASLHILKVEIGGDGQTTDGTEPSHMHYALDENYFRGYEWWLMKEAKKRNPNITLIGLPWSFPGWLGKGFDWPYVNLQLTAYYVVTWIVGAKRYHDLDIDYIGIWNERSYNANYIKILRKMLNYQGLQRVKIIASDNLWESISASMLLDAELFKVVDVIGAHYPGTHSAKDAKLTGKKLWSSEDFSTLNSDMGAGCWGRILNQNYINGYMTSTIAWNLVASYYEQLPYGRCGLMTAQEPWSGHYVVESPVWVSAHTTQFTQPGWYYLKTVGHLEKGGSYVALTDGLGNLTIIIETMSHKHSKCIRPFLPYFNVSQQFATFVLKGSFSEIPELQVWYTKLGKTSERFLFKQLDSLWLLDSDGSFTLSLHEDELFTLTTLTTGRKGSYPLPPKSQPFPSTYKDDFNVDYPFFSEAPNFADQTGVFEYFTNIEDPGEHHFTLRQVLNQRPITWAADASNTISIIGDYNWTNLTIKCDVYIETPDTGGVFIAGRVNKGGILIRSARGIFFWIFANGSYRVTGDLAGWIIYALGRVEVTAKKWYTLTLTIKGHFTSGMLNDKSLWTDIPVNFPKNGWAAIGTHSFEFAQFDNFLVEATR
In short: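 qHTS, 1536-well; 145M-Twi-hGALC-G270D cells (WT line also made) in DMEM/F12 + 10% FBS; compound incubation on live cells; HMU-β-gal 0.1 mM final, pH 5.2, NaTC; carbonate stop; fluorescence increase = enhanced residual activity.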
O=C(Nc1cc(-c2nc3ccccc3o2)ccc1Cl)c1ccc(N2CCCCC2)c([N+](=O)[O-])c1 was tested, and the “activation” value was inactive: -6.11%.
With COC(=O)c1ccccc1NC(=O)CSc1nc2ccccc2nc1Cc1ccccc1OC the “activation” value was inactive: -3.74%.
In the case of CCOC(=O)c1c(-c2ccc(Br)cc2)csc1NC(=O)c1ccc(F)cc1, the “activation” value was inactive: -11.9%.
In the case of COc1ccc(C2c3c(n(C)c4ccccc34)C(=O)N2CC(=O)Nc2ccc(C)c(Cl)c2)cc1 (stereo not given), the “activation” value was inactive: 15.7%.
With Cc1ccc(NC(=O)Cn2cc(S(=O)(=O)c3ccc(C)cc3)c(=O)c3cc4c(cc32)OCO4)cc1 the “activation” value was inactive: 0.462%.
With Cc1ccc(-c2nc(SCCOc3ccccc3C)n3[nH]c(=O)cc3n2)cc1 the “activation” value was inactive: -15.4%.
COc1ccc(CCN2CCC(Nc3nc4ccccc4n3Cc3ccc(F)cc3)CC2)cc1 was tested, and the “activation” value was inactive: -6.66%.
With CCN(Cc1ccncc1)C(=O)C(CO)c1ccccc1 (stereo not given) the “activation” value was inactive: -4.98%.
For CN(C)CCOC1=Cc2ccccc2Sc2ccc(Cl)cc21, the “activation” value was inactive: -16.2%.
For Cc1ccccc1C(=O)Nc1ccc(OCc2cc(=O)n3cccc(C)c3n2)cc1, the “activation” value was inactive: -13.2%.
With COc1ccc(NC(=O)Nc2nnc(C)s2)cc1 the “activation” value was inactive: -6.58%.
O=c1c2oc3ccccc3c2n(Cc2ccc(Cl)cc2)c(=O)n1Cc1ccco1 was tested, and the “activation” value was inactive: -14.5%.
For O=C1COc2cc(S(=O)(=O)NCc3ccco3)c(Cl)cc2N1, the “activation” value was inactive: -9.89%.
For CC1=C(c2ccc(C)c(C)c2)S(=O)(=O)N=C1N1CCC(C(=O)N2CCC(C(N)=O)CC2)CC1, the “activation” value was inactive: -12%.
In the case of CCOC(=O)C1CCN(c2nc3c(S(=O)(=O)c4ccccc4)nnn3c3ccsc23)CC1, the “activation” value was inactive: -14.1%.
With CCc1ccccc1N(CC)C(=O)c1c(C)oc2ncnc(N3CCOCC3)c12 the “activation” value was inactive: -6.2%.
With Cc1cccc(CN2CCC(CNC(=O)c3c(C)oc4ncnc(N5CCCCC5)c34)CC2)c1 the “activation” value was inactive: -19.7%.
In the case of CC(Sc1nc(=O)cc(N)n1CCc1ccccc1)C(=O)Nc1ccc(Cl)cc1 (stereo not given), the “activation” value was inactive: -28.1%.
In the case of CCN(C(=O)C1CCC(CNS(=O)(=O)c2cccc3nsnc23)CC1)c1ccc(C)c(C)c1 (stereo not given), the “activation” value was inactive: -16.2%.
Cc1cc(C)cc(OCC(=O)N(Cc2cccs2)c2ccc(Cl)cc2)c1 was tested, and the “activation” value was inactive: -14.9%.
For Cc1cc(-c2ccc(C)c(S(=O)(=O)NCc3cccc(Br)c3)c2)on1, the “activation” value was inactive: -9.02%.
In the case of CCCS(=O)(=O)N1CC(=O)N(c2cccc(Cl)c2C)C(C)(C(=O)NC2CCCC2)C1 (stereo not given), the “activation” value was inactive: -13.9%.
CCCCCn1c(CCNC(=O)c2ccc(F)cc2)nc2ccccc21 was tested, and the “activation” value was inactive: -11.9%.
With CCC(Oc1ccccc1)C(=O)Nc1cc(-c2cccc(C)c2)nn1-c1ccccc1 (stereo not given) the “activation” value was inactive: -3.53%.
For COc1ccc(-n2c(C)c(C(C)=O)c3cc(OC(=O)COc4ccccc4)ccc32)cc1, the “activation” value was inactive: -22.9%.
In the case of COc1ccc(-n2nc(C(=O)N3CCN(c4cccc(C)c4C)CC3)c3c4ccccc4n(C)c3c2=O)cc1Cl, the “activation” value was inactive: -5.07%.
With COc1cccc(CNC(=O)Cn2ncn3nc(-c4cccs4)cc3c2=O)c1OC the “activation” value was inactive: -9.76%.
For Cc1ccc(CNC(=O)Cc2c(C)c3c(cc(C)c4c(C)coc43)oc2=O)cc1, the “activation” value was inactive: 3.05%.
Fc1ccc(-c2nn(-c3ccccc3Cl)c3c2cnc2ccccc23)cc1 was tested, and the “activation” value was inactive: -6.01%.
For Cc1ccc2onc(CC(=O)N3CCN(c4cc(Cl)ccc4C)CC3)c2c1, the “activation” value was inactive: -12.7%.
For CC(NC(=O)c1ccc2c(c1)CCN2S(=O)(=O)c1ccccc1)c1ccccc1 (stereo not given), the “activation” value was inactive: -3.32%.
With Fc1ccccc1Cc1cn2cc(-c3ccc(Cl)cc3)nc2s1 the “activation” value was inactive: -9.85%.
In the case of CCC(=O)N1CCCc2cc(S(=O)(=O)N3CCC(C(=O)NC4CCCCC4)CC3)ccc21, the “activation” value was inactive: -15%.
For COc1ccccc1Cn1c(CNS(=O)(=O)c2ccc(C(C)C)cc2)nc2cccnc21, the “activation” value was inactive: 5.2%.
O=C(c1ccc2c(c1)N(Cc1ccc(F)cc1)C(=O)c1ccccc1S2(=O)=O)N1CCCC1 was tested, and the “activation” value was inactive: -15.2%.
COc1ccc(CNC(=O)c2nc(SCc3ccccc3F)ncc2Cl)cc1 was tested, and the “activation” value was inactive: -8.54%.
With COc1ccccc1NC(=O)c1oc2ccccc2c1NC(=O)c1cccc(OC)c1OC the “activation” value was inactive: -23.8%.
In the case of Cc1cccc(/C=C(\C#N)c2nc3ccccc3c(=O)[nH]2)c1, the “activation” value was inactive: -3.7%.
With COc1cc(NC(=O)CCS(=O)(=O)c2ccc3c(c2)CC(=O)N3C)cc(OC)c1OC the “activation” value was inactive: 1.12%.
For CCOc1ccc(-c2cc(C(=O)Oc3ccc(C#N)cc3)no2)cc1, the “activation” value was inactive: 5.83%.
With CCOC(=O)C1CCC(CN(Cc2ccccc2)S(=O)(=O)c2ccc(Br)cc2)CC1 (stereo not given) the “activation” value was inactive: 1.84%.
For CCCN1Cc2cccc(C(=O)Nc3ccc(C(C)=O)cc3)c2C1=O, the “activation” value was inactive: 11.3%.
COc1ccc(N2CCN(CCCNC(=O)c3cc(Nc4ccc(OC)cc4OC)nc4ccccc34)CC2)cc1 was tested, and the “activation” value was inactive: -4.55%.
For O=C(CCS(=O)(=O)c1ccccc1)N(Cc1cccnc1)c1nc2ccc(Cl)cc2s1, the “activation” value was inactive: -14.7%.
With O=C(CN1C(=O)COc2ccccc21)NCCc1ccc(Cl)cc1 the “activation” value was inactive: -9.12%.
For CCOc1ccc(N(CC)S(=O)(=O)N2CCCC(C(=O)Nc3ccc(C(C)=O)cc3)C2)cc1 (stereo not given), the “activation” value was inactive: -18%.
COc1cccc(C(=O)c2c(N)c(-c3nc(-c4ccccc4)cs3)c3ccccn23)c1 was tested, and the “activation” value was inactive: -12.5%.
With Cc1cccc(-n2c(=O)c3c(c4cc(C)ccc4n3C)n(CC(=O)N3CCCC3)c2=O)c1 the “activation” value was inactive: 2.22%.
In the case of CCc1ccc(NC(=O)CN2C(=O)C(c3ccc(Cl)cc3)=NC23CCCCC3)cc1, the “activation” value was inactive: -6.5%.
In the case of CCOc1ccccc1NC(=O)c1nc(SC(C)C)ncc1Cl, the “activation” value was inactive: -8.67%.
In the case of Cc1c(CNC2CCCCC2)c(C(=O)O)c(C)n1Cc1cccc(Cl)c1, the “activation” value was inactive: -16.2%.
For Cc1cccc(C)c1OCCCn1c(CCNC(=O)C2CCCCC2)nc2ccccc21, the “activation” value was inactive: -24.2%.
Cc1ccc(NC(=O)Cn2c(=O)n(Cc3nc(C)no3)c(=O)c3ccccc32)c(Cl)c1 was tested, and the “activation” value was inactive: -13.8%.
For Cc1c(C(=O)Nc2cccc(Cl)c2)sc2nc3n(c(=O)c12)N=C(c1cccc(Br)c1)CS3, the “activation” value was inactive: -13.1%.
With Cc1ccc(CNC(=O)c2ccc(NC(=O)N3CCSc4ncccc43)cc2)cc1 the “activation” value was inactive: 8.82%.
With CCc1ccc(-n2c(=O)c3c4c(sc3n(CC(=O)N3CCCCC3CC)c2=O)CCC4)cc1 (stereo not given) the “activation” value was inactive: -5.3%.
With CCOC(=O)c1cc(-c2ccc(OC)cc2)n(CCC(=O)NCc2ccc(OC)cc2)c1C the “activation” value was inactive: -12.7%.
In the case of Cc1ccc(C)c(NC(=O)CN(C)S(=O)(=O)c2ccc3c(c2)CCC(=O)N3)c1, the “activation” value was inactive: -7.17%.
With CC(C)NC(=O)N1CCN(S(=O)(=O)c2ccc3c(ccn3C)c2)CC1 the “activation” value was inactive: 5.2%.
CCCS(=O)(=O)c1nc(S(=O)(=O)c2ccc(C)cc2)c(N(C)Cc2ccccc2)s1 was tested, and the “activation” value was inactive: -8.14%.
Cc1ccccc1C(=O)Nc1nnc2n1CCS2 was tested, and the “activation” value was inactive: -2.64%.
For CCCC(=O)NC(C)c1nc2ccccc2n1Cc1ccccc1 (stereo not given), the “activation” value was inactive: -5.71%.
Cc1ccc(C(=O)c2cn(CC(=O)NCc3ccccc3Cl)c3nc(C)ccc3c2=O)cc1 was tested, and the “activation” value was inactive: -10.6%.
For Cc1cc(C(=O)N2CCN(c3cccc(C)c3C)CC2)c2c(C)nn(-c3ccccc3)c2n1, the “activation” value was inactive: -28.1%.
With CCOC(=O)c1c(C)[nH]c(C)c1S(=O)(=O)N1CCCC(C(=O)NCc2cccc(OC)c2)C1 (stereo not given) the “activation” value was inactive: -10.9%.
With COc1cccc(-c2ccc3c(N)c(C(=O)Nc4cc(C(F)(F)F)ccc4OC)sc3n2)c1 the “activation” value was inactive: -8.51%.
With CCOC(=O)c1sc(NC(=O)C2c3ccccc3Oc3ccccc32)c(C#N)c1C the “activation” value was inactive: -44.2%.
With Cc1cccc(OCC(=O)Nc2cc(-c3ccccc3F)nn2-c2ccccc2)c1 the “activation” value was inactive: -16.3%.
In the case of Cc1c(C(=O)N(C)C)sc2c1c(=O)n(-c1ccc(Cl)cc1)c(=O)n2Cc1ccccc1F, the “activation” value was inactive: -10.7%.
For COc1ccccc1CNC(=O)CCC1N=C2c3ccccc3N=C(SCC(=O)Nc3ccc(N(C)C)cc3)N2C1=O (stereo not given), the “activation” value was inactive: -7.41%.
In the case of COc1ccc(S(=O)(=O)N2CCCN(CC(=O)Nc3ccc(OC)cc3OC)CC2)cc1, the “activation” value was inactive: -19.1%.
For Cc1nc2nc(SCC(=O)NC3CCCCC3)nn2c(C)c1Cc1ccccc1Cl, the “activation” value was inactive: -3.77%.
For COC(=O)c1ccc2c(c1)N(Cc1ccc(Cl)cc1)C(=O)c1ccccc1S2, the “activation” value was inactive: -18.2%.
COc1cc(NC(=O)N2CCC(CN3CCOCC3)CC2)cc(OC)c1OC was tested, and the “activation” value was inactive: -14%.
In the case of CC(C)c1ccc(Nc2ncnc3onc(-c4ccc(F)cc4)c23)cc1, the “activation” value was inactive: -19.5%.
COc1ccc(OC)c2sc(N3CCN(C(=O)CCS(=O)(=O)c4ccc(F)cc4)CC3)nc12 was tested, and the “activation” value was inactive: -9.31%.
In the case of Cc1cc(Cl)ccc1NC(=O)Cn1nnc2sc(-c3ccccc3)cc2c1=O, the “activation” value was inactive: -20.8%.
For CCCn1c2ccccc2c2cnn(CC(=O)N3CCCC(C)C3)c(=O)c21 (stereo not given), the “activation” value was inactive: -14.3%.
With COc1cccc(N2CCN(C(=O)c3cc4c(=O)oc5ccc(C)cc5c4s3)CC2)c1 the “activation” value was inactive: 0.628%.
In the case of CCCCn1nc(NC(=O)c2cccc(Cl)c2)c2cc3cccc(C)c3nc21, the “activation” value was inactive: -18.2%.
Cc1ccc(-n2ncc(C(=O)NCCN3CCCC3)c2C2CCN(C(=O)OC(C)(C)C)CC2)cc1C was tested, and the “activation” value was inactive: -8.6%.
For CCc1ccccc1-n1c(C)nc2cc(C(=O)NCCc3ccc(Cl)cc3)ccc21, the “activation” value was inactive: -0.76%.
For O=C(NCCCc1nc2ccccc2n1Cc1ccc(Cl)cc1)C1CCCCC1, the “activation” value was inactive: 5.39%.
For Cc1ccc(CNC(=O)C2CCN(S(=O)(=O)c3cn(C)cn3)CC2)cc1, the “activation” value was inactive: -14.5%.
With COCc1c(C(C)C)nc(C(C)C)c(/C=C/[C@@H](O)C[C@@H](O)CC(=O)O)c1-c1ccc(F)cc1 the “activation” value was inactive: -7.41%.
CC(C)OCCCNC(=O)CN1C(=O)COc2ccc(S(=O)(=O)N3CCCCCC3)cc21 was tested, and the “activation” value was inactive: -6.52%.
For COCCCNC(=O)CCc1c(C)nc2nc(-c3cc(OC)cc(OC)c3)nn2c1C, the “activation” value was inactive: -8.88%.
CC(C)N(Cc1ccccc1)S(=O)(=O)c1ccc(-c2cc(C(F)(F)F)on2)s1 was tested, and the “activation” value was inactive: -6.55%.
Cc1c2cnn(CC(=O)NCc3ccc(F)cc3)c(=O)c2c(C)n1Cc1cccc(Cl)c1 was tested, and the “activation” value was inactive: -5.7%.
CCOCCCN(Cc1ccco1)S(=O)(=O)c1cc2c(cc1Cl)NC(=O)CO2 was tested, and the “activation” value was inactive: -2.83%.
For Cc1ccccc1-c1noc(-c2ccc(N3CCCCC3)c([N+](=O)[O-])c2)n1, the “activation” value was inactive: -15.3%.
With COc1cc(NC(=O)CSc2nnc(C)n3c2cc2oc(C)cc23)cc(OC)c1 the “activation” value was inactive: -4.98%.
CCCCN(CC)CCCNC(=O)CS(=O)(=O)Cc1nc(-c2ccc(C)cc2)oc1C was tested, and the “activation” value was inactive: -20.6%.
In the case of CCOc1ccc(CCNC(=O)C2CCN(C(=O)N3CC(CC)Oc4ccccc43)CC2)cc1 (stereo not given), the “activation” value was inactive: -8.78%.
For O=C(Nc1nnc(N2CCCCCC2)s1)Nc1cc(F)ccc1F, the “activation” value was inactive: -12.7%.
